Experimental data from PMC6602471.
Some of the results follow. At the low end of the ranking the order means little.

target: T1, ELK1 (UniProt P19419); test: custom PBM; conditions: custom protein-binding microarray; buffer, salt, pH and temperature not stated; high values mean tight binding; double strand, one strand shown
T1 sequence: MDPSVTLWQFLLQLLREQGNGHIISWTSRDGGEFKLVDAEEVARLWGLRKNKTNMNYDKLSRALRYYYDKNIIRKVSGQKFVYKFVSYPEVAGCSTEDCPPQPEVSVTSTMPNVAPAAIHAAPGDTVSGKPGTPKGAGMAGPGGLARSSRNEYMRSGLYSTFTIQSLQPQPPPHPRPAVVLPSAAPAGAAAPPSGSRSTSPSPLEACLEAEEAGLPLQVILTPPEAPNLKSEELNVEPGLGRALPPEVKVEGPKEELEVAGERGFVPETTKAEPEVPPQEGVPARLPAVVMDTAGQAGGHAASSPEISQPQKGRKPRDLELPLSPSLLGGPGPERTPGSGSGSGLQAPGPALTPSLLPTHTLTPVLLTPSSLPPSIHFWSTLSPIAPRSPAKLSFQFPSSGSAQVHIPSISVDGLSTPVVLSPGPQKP

Sequence | binding signal (log fluorescence intensity)
CTGGGACTTGACCCAAATCTGCCACGTGGGTCGTTTGTCTTGATTCGCTTGACGCTGCTG | 9
CAGCATAGGACTTCTTCCCTGAAGCAATTGATAATCGTCTTGATTCGCTTGACGCTGCTG | 8.79
CAGCATAGGACTTCTTCCCTGAAGCAATTGATTACCGTCTTGATTCGCTTGACGCTGCTG | 8.83
CTGGGCCTTGACCCAACTCTGCCACGTGGGTCGTTTGTCTTGATTCGCTTGACGCTGCTG | 8.82
GATTATTTTCTGCCCTTATTCGCACGTGCCATAACAGTCTTGATTCGCTTGACGCTGCTG | 8.81
CGGAAGTGTCGTAAACGTCGGATATCCGGTTCTTTTGTCTTGATTCGCTTGACGCTGCTG | 12.5
TGTCGGGTAAGGGAATTTAGATCACGTGAATGAAAAGTCTTGATTCGCTTGACGCTGCTG | 8.87
TGTCGGGTCAGGGAATGTAGATCACGTGAATGAAAAGTCTTGATTCGCTTGACGCTGCTG | 8.78
CAGAAGTGTCGTAAACGTCGGATATCCGGTTCTTCTGTCTTGATTCGCTTGACGCTGCTG | 12.6
GCTGCTGCGGTGCATACCCCACAGGATGTGACCCCGGTCTTGATTCGCTTGACGCTGCTG | 9.08
GGAAAAAGGCCCAGGCTAACACCGGAAGTGGGCTTAGTCTTGATTCGCTTGACGCTGCTG | 11.1
GGAAAACGGCCCAGGGTAACACCGGAAGTGGGCTTAGTCTTGATTCGCTTGACGCTGCTG | 10.9
TACTGACTTATATATGCGAATGCACATGAATATACCGTCTTGATTCGCTTGACGCTGCTG | 8.84
GATCAATTTCTGCCCTTATTCGCACGTGCCATAACAGTCTTGATTCGCTTGACGCTGCTG | 8.78
CTTGGACTTGACCCAACTCTGCCACGTGGGTCGTTTGTCTTGATTCGCTTGACGCTGCTG | 8.74
CGGAAGTGTCGTAAACGTCTGATATCCGGTTCTTCTGTCTTGATTCGCTTGACGCTGCTG | 11.1
TACTGACTTATATATGCGCATGCACATGAATAGACCGTCTTGATTCGCTTGACGCTGCTG | 8.78
CAGCATAGGACTTCTTCCCTGAAGCGATTGATAACCGTCTTGATTCGCTTGACGCTGCTG | 8.89
GATTAATTTCTGCCCTTATTCGCACGTGCCATATCAGTCTTGATTCGCTTGACGCTGCTG | 8.98
TAAAGGGAAGACGGTTGTGGTAATTCCGGGTATTAAGTCTTGATTCGCTTGACGCTGCTG | 10.1
GCTGCTGCGGTGCGTACCCCACCGGATGTGACCCCGGTCTTGATTCGCTTGACGCTGCTG | 10.3
GTGTATAGGATCCCATCCAACACAAGTGTTAAAATGGTCTTGATTCGCTTGACGCTGCTG | 8.78
CTGGGACTTGACCCAACGCTGCCACGTGGGTCGTTTGTCTTGATTCGCTTGACGCTGCTG | 8.83
